Source: US6403626B1, “Benzimidazole derivatives” (Synaptic Pharmaceutical Corporation, priority 1994, dated 2002)

What was measured:
[1] = molecular target: T1, α2A Human Adrenergic Receptor (Homo sapiens, UniProt P08913); settings: for I.A Alpha-2 A: functional cAMP assay; for pEC50 Alpha-2 A: inhibition of forskolin-stimulated cAMP, NA: Not Active
T1 sequence (P08913 1-465): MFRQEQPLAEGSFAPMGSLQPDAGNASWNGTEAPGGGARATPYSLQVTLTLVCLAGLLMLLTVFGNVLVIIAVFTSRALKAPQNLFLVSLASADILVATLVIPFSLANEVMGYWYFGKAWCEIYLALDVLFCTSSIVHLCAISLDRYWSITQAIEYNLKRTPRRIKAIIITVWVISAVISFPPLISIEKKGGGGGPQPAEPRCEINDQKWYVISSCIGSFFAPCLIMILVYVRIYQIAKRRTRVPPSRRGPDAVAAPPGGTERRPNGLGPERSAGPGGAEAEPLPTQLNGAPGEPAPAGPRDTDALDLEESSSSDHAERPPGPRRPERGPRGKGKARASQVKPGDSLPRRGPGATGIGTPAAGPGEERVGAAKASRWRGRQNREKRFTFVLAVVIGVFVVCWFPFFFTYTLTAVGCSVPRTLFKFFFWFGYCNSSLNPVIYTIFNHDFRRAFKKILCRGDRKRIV

[2] = molecular target: T1, α2A Human Adrenergic Receptor; experiment: Equilibrium competition binding, [3H] rauwolscine, membranes of transfected LM(tk-) cells; settings: for pKi Alpha-2 A: cloned human receptor, [3H] rauwolscine
[3] = molecular target: T1, α2A Human Adrenergic Receptor; experiment: cell-based

Row | Structure (SMILES) | I.A Alpha-2 A [1] | Ki [2] [nM] | also measured
1 | Clc1cccc(Cl)c1N=C1NCCN1 [Clonidine, reference compound] | 1 |  | 
2 | Brc1c(NC2=NCCN2)ccc2nc[nH]c12 [Example 2, 4-Bromo-5-(2-imidazolin-2-ylamino)Benzimidazole] | 1.00 | 3.89 | 
3 | Cc1c(N=C2NCCN2)ccc2[nH]cnc12 [Example 4, 4-Methyl-5-(2-imidazolin-2-ylamino)Benzimidazole] |  |  | EC50 [3]: 0.389 nM
4 | Ic1c(NC2=NCCN2)ccc2nc[nH]c12 [Example 5, 4-Iodo-5-(2-imidazolin-2-ylamino)Benzimidazole] | 1.00 | 3.55 | 
5 | Cn1cnc2ccc(NC3=NCCN3)c(Br)c21 [Example 12, 3-Methyl-4-bromo-5-(imidazolin-2-ylamino)Benzimidazole] | 1.00 |  | pEC50 Alpha-2 A [1]: 7.27; pKi Alpha-2 A [2]: 8.20
6 | CCCn1cnc2c(Br)c(NC3=NCCN3)ccc21 [Example 14, 1-Propyl-4-bromo-5-(imidazolin-2-ylamino)Benzimidazole] | 1.00 |  | pEC50 Alpha-2 A [1]: 6.60; pKi Alpha-2 A [2]: 8.02
7 | CCCn1cnc2ccc(NC3=NCCN3)cc21 [Example 15, 3-Propyl-5-(2-imidazolin-2-ylamino)Benzimidazole] |  | 115 | 
8 | CC(C)n1cnc2cc(NC3=NCCN3)ccc21 [Example 17, 1-Isopropyl-5-(2-imidazolin-2-ylamino)Benzimidazole] | 1.00 |  | 
9 | CC(C)n1cnc2ccc(NC3=NCCN3)cc21 [Example 20, 3-Isopropyl-5-(2-imidazolin-2-ylamino)Benzimidazole] |  | 240 | 
10 | Brc1c(NC2=NCCN2)ccc2c1ncn2C1CCCC1 [Example 26, 1-Cyclopentyl-4-bromo-5-(2-imidazolin-2-ylamino)Benzimidazole] |  | 11.7 | 
11 | Brc1c(NC2=NCCN2)ccc2ncn(C3CCCC3)c12 [Example 28, 3-Cyclopentyl-4-bromo-5-(2-imidazolin-2-ylamino)Benzimidazole] |  | 3.89 | 
12 | c1cc2c(cc1NC1=NCCN1)ncn2CC1CCCCC1 [Example 29, 1-Cyclohexylmethyl-5-(2-imidazolin-2-ylamino)Benzimidazole] |  | 26.3 | 
13 | Brc1c(NC2=NCCN2)ccc2c1ncn2CC1CCCCC1 [Example 30, 1-Cyclohexylmethyl-4-bromo-5-(2-imidazolin-2-ylamino)Benzimidazole] |  | 17.4 | 
14 | Brc1c(NC2=NCCN2)ccc2ncn(CC3CCCCC3)c12 [Example 31, 3-Cyclohexylmethyl-4-bromo-5-(2-imidazolin-2-ylamino)Benzimidazole] |  | 6.61 | 
15 | c1ccc(Cn2cnc3cc(NC4=NCCN4)ccc32)cc1 [Example 32, 1-Benzyl-5-(2-imidazolin-2-ylamino)Benzimidazole] |  | 11 | 
16 | Brc1c(NC2=NCCN2)ccc2c1ncn2Cc1ccccc1 [Example 33, 1-Benzyl-4-bromo-5-(2-imidazolin-2-ylamino)Benzimidazole] |  | 3.39 | 
17 | c1ccc(Cn2cnc3ccc(NC4=NCCN4)cc32)cc1 [Example 34, 3-Benzyl-5-(2-imidazolin-2-ylamino)Benzimidazole] |  | 38 | 
18 | Brc1c(NC2=NCCN2)ccc2ncn(Cc3ccccc3)c12 [Example 35, 3-Benzyl-4-bromo-5-(2-imidazolin-2-ylamino)Benzimidazole] |  | 3.47 | 
19 | Brc1c(NC2=NCCN2)ccc2nc(C3CC3)[nH]c12 [Example 47, 2-Cyclopropyl-4-bromo-5-(2-imidazolin-2-ylamino)Benzimidazole] |  | 6.76 | EC50 [3]: 46.8 nM
20 | Brc1c(NC2=NCCN2)ccc2nc(C(c3ccccc3)c3ccccc3)[nH]c12 [Example 48, 2-Diphenylmethyl-4-bromo-5-(2-imidazolin-2-ylamino)Benzimidazole] |  | 77.6 | 
21 | c1ccc(-c2cc(NC3=NCCN3)cc3[nH]cnc23)cc1 [Example 57, 7-Phenyl-5-(2-imidazolin-2-ylamino)Benzimidazole] | 0.50 | 16.6 | 
